This is one part of the list.
Tests used:
Assay in all cases: glycan array binding signal (z-score within array); higher = stronger binding
Conditions in all cases: glycan notation: IUPAC condensed, linker removed
[1] = molecular target: Neu5Ac(a2-6)Gal(b1-4)GlcNAc(b1-2)Man(a1-3)[Man(a1-6)]Man(b1-4)GlcNAc(b1-4)GlcNAc
Procedure, shortened: (§1)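 Negative Z-scores can be read as non-binding. The Z-score is calculated within each array and then averaged across arrays of one protein sequence at different concentrations or buffers and across linkers. Arrays, 3228 in all, were curated from the Consortium for Functional Glycomics database and kept only where the protein sequence was available.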

[2] = molecular target: Neu5Ac(a2-6)Gal(b1-4)GlcNAc(b1-2)Man(a1-3)[Neu5Ac(a2-3)Gal(b1-4)GlcNAc(b1-2)Man(a1-6)]Man(b1-4)GlcNAc(b1-4)GlcNAc
Procedure, shortened: as §1

[3] = molecular target: Neu5Ac(a2-6)Gal(b1-4)GlcNAc(b1-2)Man(a1-3)[Neu5Ac(a2-6)Gal(b1-4)GlcNAc(b1-2)Man(a1-6)]Man(b1-4)GlcNAc(b1-4)GlcNAc
Procedure, shortened: as §1

[4] = molecular target: Neu5Ac(a2-6)Gal(b1-4)GlcNAc(b1-2)Man(a1-3)[Neu5Ac(a2-6)Gal(b1-4)GlcNAc(b1-2)Man(a1-6)]Man(b1-4)GlcNAc(b1-4)[Fuc(a1-6)]GlcNAc
Procedure, shortened: as §1

[5] = molecular target: Neu5Ac(a2-6)Gal(b1-4)GlcNAc(b1-2)Man(a1-6)Man(b1-4)GlcNAc(b1-4)GlcNAc
Procedure, shortened: as §1

[6] = molecular target: Neu5Ac(a2-6)Gal(b1-4)GlcNAc(b1-2)Man(a1-6)[Gal(b1-4)GlcNAc(b1-2)Man(a1-3)]Man(b1-4)GlcNAc(b1-4)GlcNAc
Procedure, shortened: as §1

[7] = molecular target: Neu5Ac(a2-6)Gal(b1-4)GlcNAc(b1-2)Man(a1-6)[GlcNAc(b1-2)Man(a1-3)]Man(b1-4)GlcNAc(b1-4)GlcNAc
Procedure, shortened: as §1

[8] = molecular target: Neu5Ac(a2-6)Gal(b1-4)GlcNAc(b1-2)Man(a1-6)[Man(a1-3)]Man(b1-4)GlcNAc(b1-4)GlcNAc
Procedure, shortened: as §1

[9] = molecular target: Neu5Ac(a2-6)Gal(b1-4)GlcNAc(b1-2)[Neu5Ac(a2-6)Gal(b1-4)GlcNAc(b1-4)]Man(a1-3)[GlcNAc(b1-4)][Neu5Ac(a2-6)Gal(b1-4)GlcNAc(b1-2)[Neu5Ac(a2-6)Gal(b1-4)GlcNAc(b1-6)]Man(a1-6)]Man(b1-4)GlcNAc(b1-4)GlcNAc
Procedure, shortened: as §1

[10] = molecular target: Neu5Ac(a2-6)Gal(b1-4)GlcNAc(b1-2)[Neu5Ac(a2-6)Gal(b1-4)GlcNAc(b1-4)]Man(a1-3)[GlcNAc(b1-4)][Neu5Ac(a2-6)Gal(b1-4)GlcNAc(b1-4)Man(a1-6)]Man(b1-4)GlcNAc(b1-4)GlcNAc
Procedure, shortened: as §1

[11] = molecular target: Neu5Ac(a2-6)Gal(b1-4)GlcNAc(b1-2)[Neu5Ac(a2-6)Gal(b1-4)GlcNAc(b1-6)]Man(a1-6)[Neu5Ac(a2-6)Gal(b1-4)GlcNAc(b1-2)Man(a1-3)][GlcNAc(b1-4)]Man(b1-4)GlcNAc(b1-4)GlcNAc
Procedure, shortened: as §1

[12] = molecular target: Neu5Ac(a2-6)Gal(b1-4)GlcNAc(b1-3)Gal(b1-3)GlcNAc
Procedure, shortened: as §1

[13] = molecular target: Neu5Ac(a2-6)Gal(b1-4)GlcNAc(b1-3)Gal(b1-4)GlcNAc
Procedure, shortened: as §1

[14] = molecular target: Neu5Ac(a2-6)Gal(b1-4)GlcNAc(b1-3)Gal(b1-4)GlcNAc(b1-2)Man(a1-3)[Neu5Ac(a2-6)Gal(b1-4)GlcNAc(b1-3)Gal(b1-4)GlcNAc(b1-2)Man(a1-6)]GalNAc
Procedure, shortened: as §1

[15] = molecular target: Neu5Ac(a2-6)Gal(b1-4)GlcNAc(b1-3)Gal(b1-4)GlcNAc(b1-3)Gal(b1-4)GlcNAc
Procedure, shortened: as §1

[16] = molecular target: Neu5Ac(a2-6)Gal(b1-4)GlcNAc(b1-3)Gal(b1-4)GlcNAc(b1-3)Gal(b1-4)GlcNAc(b1-2)Man(a1-3)[Neu5Ac(a2-6)Gal(b1-4)GlcNAc(b1-3)Gal(b1-4)GlcNAc(b1-3)Gal(b1-4)GlcNAc(b1-2)Man(a1-6)]GalNAc
Procedure, shortened: as §1

[17] = molecular target: Neu5Ac(a2-6)Gal(b1-4)GlcNAc(b1-3)Gal(b1-4)GlcNAc(b1-3)GalNAc
Procedure, shortened: as §1

[18] = molecular target: Neu5Ac(a2-6)Gal(b1-4)GlcNAc(b1-3)Gal(b1-4)GlcNAc(b1-3)[Neu5Ac(a2-6)Gal(b1-4)GlcNAc(b1-3)Gal(b1-4)GlcNAc(b1-6)]GalNAc
Procedure, shortened: as §1

[19] = molecular target: Neu5Ac(a2-6)Gal(b1-4)GlcNAc(b1-3)Gal(b1-4)GlcNAc(b1-6)[Gal(b1-3)]GalNAc
Procedure, shortened: as §1

[20] = molecular target: Neu5Ac(a2-6)Gal(b1-4)GlcNAc(b1-3)Gal(b1-4)[Fuc(a1-3)]GlcNAc(b1-3)Gal(b1-4)[Fuc(a1-3)]GlcNAc
Procedure, shortened: as §1

[21] = molecular target: Neu5Ac(a2-6)Gal(b1-4)GlcNAc(b1-3)GalNAc
Procedure, shortened: as §1

[22] = molecular target: Neu5Ac(a2-6)Gal(b1-4)GlcNAc(b1-3)[Neu5Ac(a2-6)Gal(b1-4)GlcNAc(b1-6)]GalNAc
Procedure, shortened: as §1

[23] = molecular target: Neu5Ac(a2-6)Gal(b1-4)GlcNAc(b1-6)GalNAc
Procedure, shortened: as §1

[24] = molecular target: Neu5Ac(a2-6)Gal(b1-4)GlcNAc(b1-6)[Gal(b1-3)GlcNAc(b1-3)]Gal(b1-4)Glc
Procedure, shortened: as §1

[25] = molecular target: Neu5Ac(a2-6)Gal(b1-4)GlcNAc(b1-6)[Gal(b1-3)]GalNAc
Procedure, shortened: as §1

[26] = molecular target: Neu5Ac(a2-6)Gal(b1-4)GlcNAc6S
Procedure, shortened: as §1

Neu5Ac(a2-6)GalNAc = molecular target: Neu5Ac(a2-6)GalNAc
Procedure, shortened: as §1

[27] = molecular target: Neu5Ac(a2-6)GalNAc(b1-4)GlcNAc
Procedure, shortened: as §1

[28] = molecular target: Neu5Ac(a2-6)GalNAc(b1-4)GlcNAc6S
Procedure, shortened: as §1

[29] = molecular target: Neu5Ac(a2-6)GlcNAc(b1-4)GlcNAc
Procedure, shortened: as §1

[30] = molecular target: Neu5Ac(a2-6)GlcNAc(b1-4)GlcNAc(b1-4)GlcNAc
Procedure, shortened: as §1

B1: PX15618B-bfa-464-25-464 (Bacteroides fragilis) (protein)
chain: DQEPPLYVNENDIFTSPTRIEATLNGLYAAIKNTGTKSLMGGKSYLVFDNRGDDVINISNNLVTLFNTYNMNVGITDAENADTWTYAYLAINKVNTFLQSLEGAREVAGENYDRYVQEAKFVRALAYYYLNNLYPTPYSVNPDAKSVPLRLTAEAGTENNNMPRSTVKQIYEHILSDLENISALDTEVNTYTGVTHATQAAANMLKMRVYMAMNEWDKAITAGELVTGYSLPEDVTLIYKAPYFSQESIFSLPMADTNIPNTQQSLAEYYYDGKIMLIDTKSGIMSKPDYSLATDKRIIAFKGEKDLLMKFTDAKTKLQWVPIFRYAETLLDLAECYANKAGGEATAKSLLKQVRGRSVDAATDPLNIDNLSGDALKEAIYNEKRLEFIGEGIRGIDIMRRGEHFIKVGENETINVGPSDEKYTWPIPQVELLLNKDINK
- glycan array binding signal (z-score) [1]: -0.272
- glycan array binding signal (z-score) [2]: 0.044
- glycan array binding signal (z-score) [3]: 0.204
- glycan array binding signal (z-score) [4]: -0.113
- glycan array binding signal (z-score) [5]: -0.555
- glycan array binding signal (z-score) [6]: -0.115
- glycan array binding signal (z-score) [7]: -0.065
- glycan array binding signal (z-score) [8]: -0.375
- glycan array binding signal (z-score) [9]: -0.588
- glycan array binding signal (z-score) [10]: -0.14
- glycan array binding signal (z-score) [11]: -0.136
- glycan array binding signal (z-score) [12]: -0.118
- glycan array binding signal (z-score) [13]: -0.341
- glycan array binding signal (z-score) [14]: 0.61
- glycan array binding signal (z-score) [15]: 0.082
- glycan array binding signal (z-score) [16]: -0.364
- glycan array binding signal (z-score) [17]: -0.096
- glycan array binding signal (z-score) [18]: 0.339
- glycan array binding signal (z-score) [19]: -0.921
- glycan array binding signal (z-score) [20]: -0.121
- glycan array binding signal (z-score) [21]: 0.014
- glycan array binding signal (z-score) [22]: -0.056
- glycan array binding signal (z-score) [23]: -0.484
- glycan array binding signal (z-score) [24]: -0.554
- glycan array binding signal (z-score) [25]: 1.16
- glycan array binding signal (z-score) [26]: -0.437
- glycan array binding signal (z-score) (Neu5Ac(a2-6)GalNAc): -0.298
- glycan array binding signal (z-score) [27]: -0.248
- glycan array binding signal (z-score) [28]: -0.779
- glycan array binding signal (z-score) [29]: -0.354
- glycan array binding signal (z-score) [30]: -0.344

Source: the supplement of paper PMC8728848
